Measured values from the supplement of paper PMC3656093.
± gives the standard deviation of the averaged measurements. Over roughly 1,900 compounds, “CD40L-induced NF-kB luciferase activity, plate-corrected, relative to DMSO (0) and IKK inhibitor VII (-100) controls” has its median near 0.032; the lowest 2% begin near -26. The list shows a part of the results.

What follows are molecules tested on BL2-NFkB-Luc (assay: CD40L-induced NF-kB luciferase activity, plate-corrected, relative to DMSO (0) and IKK inhibitor VII (-100) controls (% normalized activity); higher = more NF-kB reporter activity (less inhibition)). Settings: 9.4 µM; stimulus: tCD40L 64 ng/ml; 4.5 h.
Description: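 BL2 B cells with a stable NF-kB response-element luciferase reporter (BL2-NFkB-Luc), 384-well. Cells were pre-incubated with compound at 9.4 uM for 1 h at 37 C, then stimulated with 64 ng/ml trimerized CD40L for 4.5 h; luciferase was read with Steady-Glo. Signal was normalised per plate in Genedata (median DMSO neutral control = 0, median IKK inhibitor VII at 50 uM = -100) with Assay Median plate-pattern correction; duplicate plates.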

Compound | CD40L-induced NF-kB luciferase activity
CCOC(=O)C1=C[C@]2(CC)CCCN3CCc4c(n1c1ccccc41)[C@@H]32 | 5.17 ± 1.1
CC1CNCCN1S(=O)(=O)c1cccc2cnccc12 (centres undefined) | -26.1 ± 6.3
COCCn1c(/C=C/c2ccccc2)nc2ccccc21 | 38.4 ± 2.4
COC1CCCCC1Nc1ccc(C)c(C)c1 (centres undefined) | -3.88 ± 0.6
Cc1cccc(CN2CCN(C(c3ccccc3)c3ccc(Cl)cc3)CC2)c1 (centres undefined) | -3.48 ± 4.7
CN=C1c2cc3cc(OC)ccc3n2CCN1C | 5.23 ± 1.7
OC(C#CCN1CCCC1)(c1ccccc1)c1cccnc1 (centres undefined) | -3.23 ± 0.2
C[C@]12CC[C@@H]3c4ccc(O)cc4CC[C@H]3[C@@H]1CCC2=O | 2.18 ± 8.7
CC(C)=CCCC(C)CN1CCC(N2CCC(C(=O)N3CCCC3)CC2)CC1 (centres undefined) | -6.46 ± 1.9
COC(=O)c1ccc(NC(=O)C23CCC(C)(C(=O)O2)C3(C)C)cc1 (centres undefined) | -0.16 ± 13
O=C(OCCN1CCCC1)C1(c2ccccc2)CCCC1 | -3.46 ± 0.3
COc1ccc(C)cc1S(=O)(=O)Nc1ccc(F)cc1 | 3.67 ± 1.3
CC(NC(=O)c1ccc(OC2CCN(Cc3ccccn3)CC2)cc1)c1ccccc1 (centres undefined) | 2.34 ± 8.1
O=C(/C=C/c1ccc2c(c1)OCO2)NCc1ccc(F)cc1 | -2.11 ± 1.8
COc1ccc(-c2cc(C(=O)N3CCOCC3)c3cc(C)ccc3n2)cc1 | 3.11 ± 4.2
CN1CC2CCCC3(C1)C(=O)NC1(CCCCC1)N=C23 (centres undefined) | 0.641 ± 1.3
COc1ccc(-c2c(C)c3ccc(OCC(C)=O)cc3oc2=O)cc1 | 57.5 ± 2.3

Compound | CD40L-induced NF-kB luciferase activity
Cc1csc(CCc2nc(C)cs2)n1 | -0.696 ± 2
O=C(Oc1ccc2c3c(c(=O)oc2c1)CCCC3)c1ccco1 | 2.23 ± 1.5
c1cc(-c2ccncc2)ccn1 | -5.23 ± 2.5
C(=C\c1ccc2ccccc2n1)/c1ccccc1 | -56 ± 3.4
O=C1CCc2cc(OCCCCc3nnnn3C3CCCCC3)ccc2N1 | -4.1 ± 7.8
CCS(=O)(=O)CCn1c([N+](=O)[O-])cnc1C | 0.625 ± 2.5
COc1cccc(CC2CC(=O)N(c3ccc4c(C)cc(=O)oc4c3)C2=O)c1 (centres undefined) | 4.34 ± 4.3
Cc1ccccc1NC(=O)C1c2ccccc2Oc2ccccc21 | 1.23 ± 0.33
Cc1ccc(C(CC(=O)NCc2ccco2)c2ccc(OC(C)C)cc2)cc1 (centres undefined) | -5.4 ± 2.5
O=C(CN1CC[n+]2c(-c3cccs3)csc21)c1ccc(Br)cc1 | 0.698 ± 1.9
CCOC(=O)c1c(C)oc2c1C(=O)c1ccccc1C2=O | 17.4 ± 14
CC(=O)OC1c2c(ccc3ccc(=O)oc23)OC(C)(C)C1OC(=O)CC(C)C (centres undefined) | -3.56 ± 6.5
Cc1ccc2c(c1)C(C)(C)[C@]1(C)NC(=O)CCN21 | 3.05 ± 2.2
O=C1c2ccccc2C2(c3ccccc3)NCCN12 (centres undefined) | 1.37 ± 7
O=C(CCC(=O)c1cccs1)c1cccs1 | 2.15 ± 4
CCOCc1cc(C)[nH]c(=O)c1C#N | -0.69 ± 1.2
CC(=O)N1c2ccccc2C(C)=CC1(C)C | 2.6 ± 4.1
